Reference: paper PMC4336329 (PLoS ONE, 2015)
The whole screen tested about 310,000 compounds, of which about 2,200 (0.71%) showed an effect of 50% or more. Effects have a minus sign here. The list shows a part of the results.

target: human ether-à-go-go-related gene (hERG) potassium channel (human, UniProt Q12809); experiment: primary screen, population patch clamp on CHO cells stably expressing hERG
Sequence (Q12809 whole entry, looked up): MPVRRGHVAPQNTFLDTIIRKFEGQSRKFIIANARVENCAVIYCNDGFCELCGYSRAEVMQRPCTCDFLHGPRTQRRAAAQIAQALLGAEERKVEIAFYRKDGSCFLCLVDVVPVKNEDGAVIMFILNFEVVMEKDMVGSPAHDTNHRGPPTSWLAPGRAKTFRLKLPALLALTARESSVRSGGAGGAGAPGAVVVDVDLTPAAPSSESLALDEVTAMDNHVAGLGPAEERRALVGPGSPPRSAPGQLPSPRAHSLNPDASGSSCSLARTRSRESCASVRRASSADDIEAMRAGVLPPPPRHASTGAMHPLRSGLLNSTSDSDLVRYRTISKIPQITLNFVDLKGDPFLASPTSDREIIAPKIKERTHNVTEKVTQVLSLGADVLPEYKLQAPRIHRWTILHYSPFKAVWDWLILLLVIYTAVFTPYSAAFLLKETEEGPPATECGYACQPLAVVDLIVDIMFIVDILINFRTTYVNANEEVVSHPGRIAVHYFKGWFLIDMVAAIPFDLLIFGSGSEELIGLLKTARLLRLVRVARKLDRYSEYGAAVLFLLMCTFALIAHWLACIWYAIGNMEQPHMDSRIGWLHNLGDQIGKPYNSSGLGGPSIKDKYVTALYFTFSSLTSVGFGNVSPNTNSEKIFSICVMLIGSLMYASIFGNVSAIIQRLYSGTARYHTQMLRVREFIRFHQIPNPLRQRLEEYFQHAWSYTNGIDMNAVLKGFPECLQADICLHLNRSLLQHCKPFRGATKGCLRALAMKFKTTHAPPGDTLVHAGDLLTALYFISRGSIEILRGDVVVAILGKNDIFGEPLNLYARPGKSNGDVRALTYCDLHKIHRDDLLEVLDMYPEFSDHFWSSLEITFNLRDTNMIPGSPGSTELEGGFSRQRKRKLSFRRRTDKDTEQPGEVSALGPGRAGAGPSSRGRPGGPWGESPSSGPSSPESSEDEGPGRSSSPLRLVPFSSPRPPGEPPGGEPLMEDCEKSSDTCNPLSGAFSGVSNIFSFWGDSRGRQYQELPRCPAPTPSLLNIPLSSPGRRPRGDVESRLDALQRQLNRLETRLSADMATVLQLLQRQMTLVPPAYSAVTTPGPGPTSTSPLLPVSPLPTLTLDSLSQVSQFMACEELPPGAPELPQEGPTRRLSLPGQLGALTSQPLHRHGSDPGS

SMILES | hERG current change (%, negative = inhibition) at 1uM [%]
CCN(CC)CCN1C(=O)Cn2c(C)c(C)c3cccc1c32.Cl | -12.2
CCOc1ccc(S(=O)(=O)Nc2cc(F)ccc2F)c2cccnc12 | 13.4
Cc1ccc(CCNC(=O)C2CCCN(C(=O)N(C)C)C2)cc1 (stereo not drawn) | 8.32
CCOc1ccc(Nc2nc(Cc3nnc(SCC(=O)O)o3)cs2)cc1 | 20
Cc1cccc2nc(CSc3nc4[nH]ncc4c(=O)n3-c3cccc(Cl)c3)cc(=O)n12 | 5.66
CN(C)c1ccc(/C=N/O)cc1 | 15.2
Nc1nnc(-c2ccccc2F)s1 | 10.7
CCCNC(=O)Cn1cnc2sc(C(=O)Nc3cc(OC)c(OC)c(OC)c3)c(C)c2c1=O | 7.4
O=C(NCCN1CCOCC1)C1(C(F)(F)F)C/C(=C\Cc2ccccc2)CCCO1 (stereo not drawn) | 8.67
Cc1ccc(C(=O)NNC(=O)CCOc2cccc(C)c2)cc1 | 7.38
Cc1ccccc1NC(=O)C1C2CCCC1C2c1ccccc1 (stereo not drawn) | 1.65
CCSC1=C(C#N)C(c2ccccc2C)CC(=O)N1 (stereo not drawn) | 7.34
Cc1c(NC(=O)C(C#N)=C2CCCCC2)c(=O)n(-c2ccccc2)n1C | 11.4
CCOc1ccc(NC(=O)CN(C)C(=O)CSCc2c(C)noc2C)cc1OCC | 7.53
C=CCn1c(C)nnc1SCC(=O)c1[nH]c(C)c(C(C)=O)c1C | 9.55
Fc1cc2nc(-c3ccncc3)[nH]c2cc1F | -8.72
CCOC(=O)c1nnn(CC(=O)N2N=C(c3cc(C)ccc3C)CC2c2ccc(OC)cc2)c1C(=O)OCC (stereo not drawn) | 7.92
CNC(=O)CSc1nnc(-c2ccco2)n1-c1ccccc1OC | 3.78
CC1(C)Cc2c(C#N)c(N)n(-c3ccccc3)c(=O)c2CO1 | 12.7

SMILES | hERG current change (%, negative = inhibition) at 1uM [%]
COc1c2ccoc2nc2c(OC)c(OC[C@@H](O)C(C)(C)O)ccc12 | 11.6
Cc1cccc(-n2cnc(C(=O)O)c2)n1 | 14.7
Oc1ccc(C23CC4CC(CC(C4)C2)C3)cc1O | 17.2
Cc1cccc(NC(=O)C2CCCN(c3ncnc4c3nc3n4CCCCC3)C2)n1 (stereo not drawn) | -11.8
O=S(=O)(CCN1C=CC(C(F)(F)F)=NCC1)c1ccc(F)cc1 | 4.38
CN(c1ccc2nc3ccccc3c(=O)n2n1)C1CCCCC1 | 4.9
COCCN(C(=O)COC(=O)c1cc(C)n(-c2ccccc2)c1C)c1c(N)n(Cc2ccccc2)c(=O)[nH]c1=O | -3.37
CCNC(=S)NC(=NCc1cccnc1)Nc1nc(C)cc(C)n1 | 19.4
NNC(=O)[C@H](Cc1ccccc1)NC(=O)Nc1ccc2c(c1)OCCO2 | 8.85
CCOC(=O)c1[nH]ncc1CN1CCN(Cc2ccccc2)C(CCO)C1 (stereo not drawn) | 20.5
COCc1nc2ccccc2n1CCOc1ccccc1OC | 8.78
COCC(=O)NC1CCCCCC1 | 11.1
Cc1nn(Cc2cccc(C(=O)O)c2)c(C)c1[N+](=O)[O-] | 7.02
Cc1cccc(C)c1-n1c(C)cc(/C=N/NC(=O)CSc2ncccn2)c1C | 13.3
COc1ccc(/C=C/C(=O)O)cc1S(=O)(=O)N1CCC(C)CC1 | 26.1
Cc1ccc(NC(=O)CN2C(=O)NC3(CCCc4ccccc43)C2=O)cc1S(=O)(=O)N1CCOCC1 (stereo not drawn) | 10.2
CC(C)CC(=O)NC(Nc1ccccc1F)C(Cl)(Cl)Cl (stereo not drawn) | 10.1
Cl.O=C(C1CCCO1)N1CCC(c2nc3ccccc3[nH]2)CC1 (stereo not drawn) | 3.35
Cc1c(CCOC(=O)CC23CC4CC(CC(C)(C4)C2)C3)sc[n+]1CC(=O)c1ccccc1.[Br-] | -5.09

SMILES | hERG current change (%, negative = inhibition) at 1uM [%]
Cc1nc2scc(-c3ccc(Cl)cc3)c2c(=O)n1N | 9.12
Cn1c(=O)c2c(ncn2CC(=O)OCC(=O)Nc2ccccc2Cl)n(C)c1=O | 16.4
COc1cc2c(cc1OC)CN(C(=O)c1cc(=O)c3ccccc3o1)CC2 | 4
CCN(CC(=O)NCc1ccc(Cl)cc1)C(=O)c1cccc(S(=O)(=O)Nc2ccc(OC)cc2)c1 | 12.7
Nc1ccc(S(=O)(=O)NCC(=O)OC2CCOC2=O)cc1[N+](=O)[O-] (stereo not drawn) | 10.8
CSCCOC(=O)C1=C(C)NC(=O)NC1c1ccc2c(c1)OCO2 (stereo not drawn) | 12.2
CC(C)C(C(=O)NCC1CCCO1)N(C(=O)CNS(=O)(=O)c1ccccc1)C1CCCCC1 (stereo not drawn) | 14.1
Cc1cccc(N2CCN(C(=O)C3CCN(c4ncnc5c4nc4n5CCCCC4)CC3)CC2C)c1 (stereo not drawn) | 10.1
N#Cc1ccc(N2Cc3ccccc3C2=NC(=O)c2cccnc2Cl)cc1 | 5.16
CN(C)S(=O)(=O)c1ccc(NC(=O)COC(=O)C2CC3CCCC(C2)C3=O)cc1 (stereo not drawn) | -0.434
CN(CC(=O)Nc1ccccc1Br)C(=O)CNC(=O)c1ccc2c(c1)OCO2 | 15.3
CSc1ccc(/C=C/C(=O)N2CCN(c3ccccn3)CC2)cc1 | 8.93
CC(C)C12CN3CC(C(C)C)(CN(C1)C3c1ccco1)C2=O (stereo not drawn) | 13.7
COc1ccc(CNS(=O)(=O)c2cccc(S(=O)(=O)N3CCOCC3)c2)cc1 | -9.42
Cn1cc(CNC(=O)c2cc(COc3ccc4c(c3)CCCC4)on2)cn1 | 6.83
Cc1ccc(OCC(=O)NNC(=O)c2cccnc2)cc1 | 12
CCOC(=O)Nc1ccc2c(c1)Nc1ccccc1S2 | 9.07
Cc1cc(C)c2c(CC(=O)Nc3ccc(Cl)cn3)coc2c1 | -2.88
O=C(CCC(=O)Nc1ccc(F)cc1)N/N=C/c1ccc(O)cc1O | 7.85
